# Reference: article PMC4336329 (PLoS ONE, 2015)
# The whole screen tested about 310,000 compounds, of which about 14,000 (4.5%) showed an effect of 50% or more. The effect is printed as a negative number. The list shows a part of the results.
# Molecular target: human ether-à-go-go-related gene (hERG) potassium channel (human, UniProt Q12809)
# Test: primary screen, population patch clamp on CHO cells stably expressing hERG
# 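Further: peak tail current of the secondary pulse compared with the same well before compound.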
# human ether-à-go-go-related gene (hERG) potassium channel, sequence (Q12809 whole entry, looked up): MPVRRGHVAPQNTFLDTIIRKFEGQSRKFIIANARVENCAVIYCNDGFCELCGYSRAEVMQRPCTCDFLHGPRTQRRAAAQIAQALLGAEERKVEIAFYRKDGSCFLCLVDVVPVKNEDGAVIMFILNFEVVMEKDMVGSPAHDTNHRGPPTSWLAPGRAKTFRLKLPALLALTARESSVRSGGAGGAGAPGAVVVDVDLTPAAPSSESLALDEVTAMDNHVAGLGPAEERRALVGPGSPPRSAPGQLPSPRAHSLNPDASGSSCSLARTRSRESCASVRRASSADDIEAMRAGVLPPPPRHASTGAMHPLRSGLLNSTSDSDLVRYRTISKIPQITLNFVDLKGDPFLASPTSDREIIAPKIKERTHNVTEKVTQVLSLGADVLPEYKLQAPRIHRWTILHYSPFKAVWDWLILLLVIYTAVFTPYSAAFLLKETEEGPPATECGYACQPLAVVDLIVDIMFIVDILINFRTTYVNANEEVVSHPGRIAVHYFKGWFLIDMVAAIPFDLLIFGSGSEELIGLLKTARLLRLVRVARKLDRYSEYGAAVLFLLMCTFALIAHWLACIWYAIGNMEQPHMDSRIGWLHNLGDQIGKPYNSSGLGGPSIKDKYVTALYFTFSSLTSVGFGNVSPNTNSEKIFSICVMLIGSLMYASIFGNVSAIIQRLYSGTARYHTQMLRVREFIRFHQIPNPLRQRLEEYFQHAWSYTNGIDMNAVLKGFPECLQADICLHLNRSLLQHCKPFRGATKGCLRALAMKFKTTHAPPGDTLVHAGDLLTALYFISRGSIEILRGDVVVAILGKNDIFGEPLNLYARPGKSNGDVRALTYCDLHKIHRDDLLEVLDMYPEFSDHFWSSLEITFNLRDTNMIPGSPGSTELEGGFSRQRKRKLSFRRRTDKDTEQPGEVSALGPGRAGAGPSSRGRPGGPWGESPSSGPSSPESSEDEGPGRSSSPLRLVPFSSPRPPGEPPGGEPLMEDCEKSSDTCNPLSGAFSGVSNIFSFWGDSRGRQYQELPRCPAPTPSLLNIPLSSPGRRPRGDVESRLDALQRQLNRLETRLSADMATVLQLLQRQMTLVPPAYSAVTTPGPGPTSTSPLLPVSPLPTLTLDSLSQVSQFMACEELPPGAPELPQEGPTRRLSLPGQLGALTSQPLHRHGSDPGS
row,Structure (SMILES),"hERG current change (%, negative = inhibition) at 10uM [%]"
1,COC(=O)N(c1ccccc1)P1(=S)OCCO1,17.5
2,CCCSc1ccc([C@@H]2[C@H]3C(=O)N(CC)C(=O)[C@H]3[C@]3(C(=O)OC)CCCN23)cc1.O=C(O)C(F)(F)F,-14.7
3,COc1ccccc1S(=O)(=O)Cc1ccc(C(=O)N2CCN(c3ccccc3)CC2)o1,-45.8
4,COc1ccc(OCc2cc(C(=O)NCC(C)(C)N3CCOCC3)no2)c(Cl)c1,-31.8
5,O=c1c2ccccc2nc2n1CCO2,10.2
6,COC(=O)c1cc(S(=O)(=O)NCC2CCN(Cc3ccc(C)cc3)CC2)cn1C,-52
7,COc1cccc(C(=O)CC(C#N)c2ccc(F)cc2)c1 (stereo not drawn),-12.2
8,CCCn1c(/N=C/c2cc(OC)ccc2O)nc2ccccc21,15.5
9,O=C(Cc1c[nH]c2ccccc12)Nc1cccc(S(=O)(=O)N2CCCCC2)c1,-13.6
10,Nc1ccccc1-[n+]1c(-c2ccccc2)cc(-c2ccccc2)cc1-c1ccccc1.[O-][Cl+3]([O-])([O-])[O-],-50.9
11,O=C1CCCN1c1ccc(S(=O)(=O)N2CCCCC2)cc1[N+](=O)[O-],5.24
12,CSCCC(NC(=O)c1ccco1)C(=O)N1CCC(C(N)=O)CC1 (stereo not drawn),2.29
13,Cc1cccnc1NC(=O)C1CCC1,23.7
14,C/C(=N\NC(=O)c1cccc(N2CCCC2=O)c1)c1ccc(N)cc1,12
15,Cc1cccc(CN2CCCC(C(=O)c3ccc4c(c3)OCO4)C2)n1 (stereo not drawn),-49.2
16,CN(C(=O)COC(=O)c1ccc(Cl)c(N)c1)c1ccccc1,3.01
17,CC1(C)Cc2c(sc3ncn(N)c(=N)c23)CO1,9.31
18,COCCOC(=O)c1c(C)oc2ccc(OC(=O)c3ccc4c(c3)OCO4)cc12,14.6
19,CN(C)N1C(=O)CC(C)(c2ccc([N+](=O)[O-])cc2)C1=O (stereo not drawn),-0.575
20,O=[N+]([O-])c1cccc(CSc2nc3ccccc3[nH]2)c1,-15.6
21,O=C(COC(=O)COc1ccc(Br)cc1)Nc1cccnc1Cl,17.8
22,CCn1c(SCC(=O)Nc2ccc3c(c2)OCCO3)nnc1-c1cccnc1,12.9
23,Cn1c(N2CCN(c3ccccn3)CC2)nc2c1c(=O)n(Cc1ccccc1Cl)c(=O)n2C,13.9
24,Cc1ccc(S(=O)(=O)Cn2nnnc2C(CC(C)C)N2CCN(c3ccccc3)CC2)cc1 (stereo not drawn),15.8
25,CCc1ccccc1NC(=O)CN1CCN(C(=O)c2cccc(-n3cnnn3)c2)CC1,-65
26,COCCN(C(=O)CSc1n[nH]c(-c2ccc(OC)cc2)n1)c1c(N)n(Cc2ccccc2)c(=O)[nH]c1=O,3.21
27,COc1ccc2nc(NC3=NCCN3)sc2c1,-0.215

row,Structure (SMILES),"hERG current change (%, negative = inhibition) at 10uM [%]"
1,COc1cccc2cc(C(=O)N3CCc4ccccc4C3)c(=O)oc12,11.1
2,O=C(C1CC(c2ccc(F)cc2)=NO1)N1CCCCC1 (stereo not drawn),4.94
3,O=C1NC(=O)C(CCc2ccncc2)(CCc2ccncc2)C(=O)N1Cc1ccc(F)cc1,-76.6
4,NNC(=O)c1cc2ccccc2[nH]1,15.3
5,CC(C)CN(C(=O)COC(=O)c1nc(Cl)ccc1Cl)C1CCS(=O)(=O)C1 (stereo not drawn),14
6,COc1ccc(OC)c(NC(=S)NCCN2CCOCC2)c1,8.88
7,O=C(NCc1ccncc1)C(=O)N/N=C/c1ccccc1OCc1ccccc1,8.91
8,CCOC(=O)N1CCC(N2Cc3cccc(C(=O)Nc4ccccc4OC)c3C2=O)CC1,-79.2
9,Cc1ccc(/C=C/c2ccc(N(C)C)cc2)[n+](C)c1.[I-],-25.5
10,Cc1ccc(NC(=O)N(CCCN2CCOCC2)Cc2cc3cc4c(cc3[nH]c2=O)OCO4)cc1,-42
11,Cc1csc(/N=C/N(C)C)c1C#N,9.31
12,CCOc1ncccc1C(=O)OCC(=O)NCc1ccc2c(c1)OCO2,1.22
13,O=c1c2ccccc2nc(-c2ccccc2Cl)n1-c1ccc(O)cc1,5.92
14,O=C(O)[C@H]1Cc2ccccc2CN1S(=O)(=O)c1ccc(F)cc1,19
15,Cc1cc(/C=N/Nc2nc(N3CCOCC3)nc(N3CCOCC3)n2)c(C)n1-c1ccccc1,7.66
16,Cc1ccc(C(=O)Nc2ccc3c(c2)OCO3)cc1S(=O)(=O)N1CCOCC1,-33.1
17,O=C(Nc1nnc(-c2ccc3c(c2)CCCC3)o1)c1ccccc1,-14.6
18,CN(c1ccccc1)S(=O)(=O)c1cccc(NC(=O)Cc2n[nH]c(=O)c3ccccc23)c1,-30.9
19,CN1CCN(C(=O)c2ccc3c(=O)n(CCc4ccccc4)c(=S)[nH]c3c2)CC1,-5.84
20,COc1cccc(C(=O)/C=C/Nc2cc(C)ccc2O)c1,-6.19
21,COc1ccc(NC(=O)CN(C)S(=O)(=O)c2ccc(C)cc2)c([N+](=O)[O-])c1,-12.8
22,O=C(O)c1ccc(CSc2nnc(-c3ccco3)n2-c2ccccc2)cc1,22.6
23,COc1ccc2cc(CCNC(=O)c3ccc(S(=O)(=O)N4CCCC4)cc3)c(=O)[nH]c2c1,-8.62
24,Cc1ccc(C)c(S(=O)(=O)N2CCC(c3nc4c(nnn4Cc4ccc(F)cc4)c(=O)[nH]3)CC2)c1,2.18
25,Cc1csc(NC(=O)CSc2nc(C(C)C)nc3ccccc23)n1,9.99
26,COc1cc(NC(=O)c2ccc(Cl)cc2)c(Cl)cc1NC(=O)c1cccnc1,1.74
27,N#CC(c1ccc(Cl)nn1)c1c(F)cccc1Cl (stereo not drawn),9.59
